# The list shows a part of the results. Sequences were assembled here from the parent chain. Values near 0.05 are background.
# B1: TEV protease; numbered along this chain (parent)
# chain: MGESLFKGPRDYNPISSSICHLTNESDGHTTSLYGIGFGPFIITNKHLFRRNNGTLVVQSLHGVFKVKDTTTLQQHLVDGRDMIIIRMPKDFPPFPQKLKFREPQREERICLVTTNFQTKSMSSMVSDTSCTFPSGDGIFWKHWIQTKDGQCGSPLVSTRDGFIVGIHSASNFTNTNNYFTSVPKNFMELLTNQEAQQWVSGWRLNADSVLWGGHKVFMVKPEEPFQPVKEATQL
# Variants of: B1
# Assay: raw area under fraction-flipped curve 0-4 h after induction (AUC4h, not background-subtracted), DNA-recorder readout of cleavage of the substrate (dimensionless); higher = more cleavage of the substrate by the protease variant
# Details: temperature: 34 °C; time window: 0-4 h after rhamnose induction
# Description: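 In vivo DNA recorder in E. coli TOP10(DE3) ΔrhaA at 34 °C. Each TEVp single-site mutant (parent TEVp 0) is paired with a single-site variant of the 7-mer TEVs (canonical ENLYFQ|S). The substrate sits between flexible linkers in a Bxb1-sfGFP-TEVs-SsrA fusion, so cleavage stabilises Bxb1 and speeds flipping of a recombination array, read by NGS. The value is the raw area under the fraction-flipped curve over 0-4 h after rhamnose induction (AUC4h), with ≥20 reads per time point. It is not background-subtracted; inactive controls average about 0.047.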
# 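Note: Bxb1 expression induced with 0.2% (w/v) L-rhamnose at OD600 near 0.5, cultures sampled hourly, flipped fraction per protease–substrate barcode pair counted by paired-end Illumina sequencing.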
Variant,area with substrate ENLYFQA,area with substrate ENLYFQC,area with substrate ENLYFQM,area with substrate ENLYFQN,area with substrate ENLYFQR,area with substrate ENLYFQS,area with substrate ENLYFQT,area with substrate ENLYFQV,area with substrate ENLYFQW,area with substrate ENLYFQY,area with substrate ENLYFQD,area with substrate ENLYFQE,area with substrate ENLYFQH,area with substrate ENLYFQI,area with substrate ENLYFQK,area with substrate ENLYFQL,area with substrate ENLYFQP,area with substrate ENLYFQF,area with substrate ENLYFQG,area with substrate ENLYFQQ
K148S,0.0723,0.13,0.0804,0.0703,0.0691,0.0921,0.0708,0.0541,0.0519,0.079,,,,,,,,,,
K148Y,0.113,0.167,0.0965,0.0752,,0.107,,0.042,,0.0817,0.0714,0.0705,0.0861,0.0663,0.0496,0.0694,0.0659,,,
Q151R,0.121,0.0835,,0.0639,0.0594,0.0982,0.0529,0.0685,0.0644,0.0554,0.045,,,0.0584,0.0599,0.0603,0.0736,0.0561,0.0884,
G153E,0.0528,,,,0.0487,0.0549,0.045,,,,,,,,,,0.0438,,,
P155R,0.0627,0.0479,0.0457,0.0554,0.051,0.0525,0.0548,0.0487,0.0555,0.0517,0.0564,,0.0534,0.0389,0.0557,,,0.0494,0.0623,0.0702
V157M,0.0912,,0.0803,0.0772,0.0452,0.091,0.0857,0.0698,0.0574,,,,0.0807,0.0588,0.0822,0.0539,,,0.0652,
S158M,0.0614,0.0574,0.0569,0.0552,0.0484,0.0548,0.057,,0.048,0.0569,0.0416,0.0489,0.0598,0.0531,0.0607,0.0529,0.045,0.0549,0.0564,
S158R,0.0399,0.0506,,,0.0533,0.0523,,0.0539,0.0646,,,,,,0.049,0.034,0.0417,0.0265,0.0515,
S158W,0.0515,0.0492,0.0528,,0.0559,0.0517,0.0542,0.0525,,0.0412,0.0577,,0.0438,0.0409,0.0559,0.0488,0.0487,0.0524,0.0478,0.0588
D161E,0.0801,0.0832,0.0748,0.0645,0.0599,0.079,0.0576,,0.0526,0.0679,0.0538,,0.0593,0.0532,0.058,0.0563,0.0611,,0.0852,
F163T,0.0652,,,,0.0617,0.0977,0.0592,,,,,,,,,0.0612,,,0.101,
I164S,0.0568,0.0462,,,0.0563,0.0597,0.0523,0.0494,,0.0569,0.0786,0.0485,0.0764,0.0539,0.0608,0.0518,,0.0479,0.0457,0.0613
S169G,0.0644,0.0663,0.0605,0.0561,0.0486,0.0634,0.0589,,0.0608,0.0106,0.0508,,0.0706,,,0.0548,0.0672,,0.044,0.0725
S169Q,0.0672,0.0599,0.0505,0.0731,0.0535,0.0594,0.0563,0.0615,,0.051,0.0659,,0.0504,0.0501,0.0647,0.0459,0.0531,0.0662,,0.0505
S171D,0.0678,0.0757,0.0543,0.0456,0.0676,0.0617,0.0663,0.0287,0.062,,,,0.0557,0.0554,,,0.0444,,,
S171T,0.0909,,,,,0.123,,0.0575,0.0681,,,,,,,,,0.0727,0.139,
F173G,0.078,0.106,0.0675,0.059,0.0505,0.0842,,0.0571,0.0669,,,,,0.0768,0.0704,,,,,
T174H,0.0909,0.0789,0.04,0.0764,,0.083,0.0693,,0.0468,,,,,0.0586,0.0622,0.0586,,,,
N175V,0.0576,0.0711,0.0674,0.0555,,0.0663,0.0563,0.0542,,0.0576,,0.0549,0.0562,0.0544,,,0.0585,0.0743,0.0898,
Y179I,0.0548,,,0.0562,0.0676,0.0609,,,,0.063,,,0.0614,,,0.0611,,,,
F180A,0.0827,0.136,,0.0429,0.0516,0.0797,0.0562,,,0.0641,0.0701,0.0532,,0.0536,,,,0.07,,0.061
F180R,0.0651,0.0584,0.0499,0.049,0.0507,0.0529,0.046,0.0448,0.063,0.0363,,,,,0.0511,0.0434,0.057,,0.0413,
T181S,0.116,0.14,0.0695,,0.0652,0.104,0.0641,,,,,,0.0968,0.0543,,,,,,
S182G,0.0924,0.141,,,0.0303,0.111,0.0716,,0.0543,0.0865,0.102,,0.0965,0.0475,,0.059,,,,
S182Q,0.0782,0.108,0.111,0.0567,0.0584,0.0954,0.0537,0.0565,0.0595,,0.0606,,0.0984,,0.0472,0.0746,,0.0611,0.0857,
S182T,0.0854,,,,0.0528,0.101,0.0645,,,,,,,0.0472,0.0842,,,,0.101,
K185W,0.0852,0.116,0.109,0.0589,0.0689,0.098,0.059,0.0563,0.0694,0.0786,0.0714,0.0626,,0.053,0.0687,0.0477,0.0664,0.075,0.0721,0.0694
N186C,0.103,0.107,0.0869,0.0903,,0.0985,,,,,,,0.0692,0.0585,0.0499,0.0619,,,0.0766,

# From the supplement of paper PMC12217912
